# Results taken from PubChem BioAssay AID1479 (National Center for Advancing Translational Sciences (NCATS), 2009).
# Hit rate of the full screen: of about 280,000 compounds, about 820 (0.29%) were called active. The shares of active, inactive and inconclusive entries below differ from those in the screen. Calls follow the shape of the dose curve; as a rule, active = well fitted curve in either direction with a large enough effect; inconclusive = small, poorly fitted or top-dose-only effect; inactive = flat fitted curve, though single readings scatter. No potency is given beside an inconclusive call; the fits are too rough. The source holds several records for some structures; these can differ, active in one and inactive in another.
# Assay: Total Fluorescence Counterscreen for Inhibitors of the Interaction of Thyroid Hormone Receptor and Steroid Receptor Coregulator 2
# Conditions: TRb/SRC2 Texas Red total fluorescence interference; series mostly up to 106 µM
# Summary of the method: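 Flags fluorescent or light-absorbing compounds by total fluorescence, S + 2P, at 555 nm excitation and 632 nm emission. Mixture: 20 nM Texas Red SRC2 peptide, 0.6 uM human TRb LBD, 1 uM T3, 5% DMSO; compound exposure 5 h at ambient temperature.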
# Potency is read from the fitted curve at half-maximal effect; tags tell the direction and shape of the fitted curve or compound fluorescence and quenching.
row,Compound,Potency
1,O=[N+]([O-])c1ccc(O)c(Nc2ncnc3ccccc23)c1,inactive
2,Cc1ccc(-n2cc(CNCCn3nc(C)cc3C)c(-c3ccc(F)cc3)n2)cc1,"inconclusive [rising, single point]"
3,CC(C)(C)c1ccccc1NC(=S)NCc1ccccc1,"inconclusive [falling, full curve, poor fit]"
4,O=C(O)CN(CC(=O)O)Cc1cc2c(-c3ccccc3C(=O)O)c3cc(CN(CC(=O)O)CC(=O)O)c(=O)cc-3oc2cc1O,active: 39.8 µM [fluorescent]
5,CC(C)N(Cc1ccccc1)C(=O)c1nc(-c2ccc(Cl)cc2)n2c1CCCCC2,active: 14.1 µM [quencher]
6,O=C(CSc1nc2c([nH]c3ccccc32)c(=O)n1-c1ccccc1)Nc1ccc2c(c1)OCO2,"inconclusive [quencher, full curve]"
7,N#CC1=C2SCN(Cc3ccccc3)CN2C(=O)CC1c1ccc2c(c1)OCO2 (stereo not given),inactive
8,O=C(c1ccc2c(c1)N(Cc1ccc(Cl)cc1)C(=O)c1ccccc1S2(=O)=O)N1CCCC1,"inconclusive [quencher, full curve]"
9,COc1ccc(NC(=O)CSc2ncc3c(n2)-c2ccccc2N(Cc2ccc(C)cc2)S3(=O)=O)cc1Cl,"inconclusive [falling, full curve, poor fit]"
10,Cc1ccc(CN(C(=O)c2ccc(OCC(C)C)cc2)c2ccccn2)o1,"inconclusive [falling, partial curve, poor fit]"
11,O=c1[nH]c(SCc2nc3ccccc3c(=O)n2-c2ccccc2)nc2ccccc12,"inconclusive [quencher, full curve]"
12,N#Cc1c(N)sc(=S)c2c1CCCC2,inactive
13,Cc1cc(C)c(C)c(N=Nc2nc3ccccc3n2C)c1C,inactive
14,Cc1cc(=O)n(Cc2cccc(F)c2)c2c1c(C)nn2-c1cccc(F)c1,"inconclusive [falling, partial curve, poor fit]"
15,Cc1ccc(NC(=O)c2sc3nc[nH]c(=O)c3c2C)cc1Cl,"inconclusive [falling, full curve, poor fit]"
16,COc1ccc(CCNC(=O)c2ccc3c(c2)N(Cc2ccccc2F)C(=O)c2ccccc2S3=O)cc1OC (stereo not given),"inconclusive [falling, partial curve, poor fit]"
17,O=c1cc(-c2ccc(O)c(O)c2)oc2cc(O)c([C@@H]3O[C@H](CO)[C@@H](O)[C@H](O)[C@H]3O)c(O)c12,inactive
18,CC(C)CC(=O)N[C@H](C(=O)N[C@H](C(=O)N[C@@H](CC(C)C)[C@H](O)CC(=O)N[C@@H](C)C(=O)N[C@@H](CC(C)C)[C@H](O)CC(=O)O)C(C)C)C(C)C,"inconclusive [quencher, full curve]"
19,CNC(=O)[C@H]1O[C@@H](n2cnc3c(N)ncnc32)[C@H](O)[C@H]1O,"inconclusive [quencher, full curve]"
20,COc1ccc(-c2noc(COc3ccc(Br)cc3C)n2)cc1OC,"inconclusive [falling, full curve, poor fit]"

row,Compound,Potency
1,CCCCCCCC/C=C\CCCCCCCC(=O)OC[C@@H](O)[C@H]1OC[C@H](O)[C@H]1O,inactive
2,O=C(O)c1cc(-c2ccc(/C=C3/SC(=S)N(Cc4ccccc4)C3=O)o2)ccc1Cl,"inconclusive [falling, single point]"
3,CCOc1ccc(C(=O)NCCn2cc(SCC(=O)Nc3ccccc3)c3ccccc32)cc1,"inconclusive [quencher, full curve]"
4,O=C(Cn1nc(C(F)(F)F)c2c1CCC2)Nc1ccc(Cl)cc1,"inconclusive [quencher, full curve]"
5,COc1ccccc1Nc1nc(-c2ccccc2Cl)c2cc(Br)ccc2n1,"inconclusive [falling, partial curve, poor fit]"
6,COc1ccccc1CNC(=O)Cn1c(=O)oc2cc(S(=O)(=O)NCc3ccccc3)ccc21,"inconclusive [quencher, partial curve]"
7,COc1ccccc1NC(=O)Cn1c(=O)n(Cc2ccccc2)c(=O)c2c3c(sc21)CN(C(C)=O)CC3,"inconclusive [falling, full curve, poor fit]"
8,O=Cc1[nH]c2ccccc2c1N(C(=O)CCl)c1ccccc1,inactive
9,C=CCn1c(=S)[nH]c2scc(-c3ccc(C)o3)c2c1=O,inactive
10,Cc1ccc(S(=O)(=O)Nc2ccc3c(c2)CCC3)cc1,"inconclusive [falling, full curve, poor fit]"
11,O=C(CCNS(=O)(=O)c1ccc2c(c1)CCN2C(=O)C1CC1)N1CCN(c2ccc(F)cc2)CC1,"inconclusive [falling, full curve, poor fit]"
12,COc1cc(NCCCC(C)N)c2ncccc2c1 (stereo not given),active: 44.7 µM [fluorescent]
13,Cc1c(NC(=O)CN2C(=O)NC(C)(c3ccccc3Cl)C2=O)c(=O)n(-c2ccccc2)n1C (stereo not given),"inconclusive [falling, full curve, poor fit]"
14,O=C(O)c1ccccc1/C=N/NC(=O)c1cc(-c2ccco2)nc2ccccc12,"inconclusive [falling, single point]"
15,Nc1cc([N+](=O)[O-])ccc1O,active: 0.112 µM [quencher]
16,COC(=O)[C@@]1(Cc2ccc(OC)cc2)[C@H]2c3cc(C(=O)N(C)C)n(Cc4ccc(C)c(F)c4F)c3C[C@H]2CN1C(=O)c1ccccc1,inactive
17,COc1ccc(CNC(=O)CSc2nc3ccsc3c(=O)n2Cc2ccccc2Cl)cc1,"inconclusive [quencher, full curve]"
18,Cc1ccc(NC(=O)Cn2ncn3c(cc4ccccc43)c2=O)c(C)c1,"inconclusive [quencher, full curve]"
19,N#C/C(=C\Nc1ccc2cn[nH]c2c1)c1nc(-c2ccc(Cl)cc2)cs1,"inconclusive [rising, single point]"
20,CCOC(=O)c1sc(NC(=O)c2nc3ncccn3n2)c(C(=O)OC)c1C,"inconclusive [falling, full curve, poor fit]"
